Laboratory results from the supplement of paper PMC10126150.
Values marked as one replicate rest on one cluster of the flow cell; about a third of the high ones do not repeat.

test system: ATP; experiment: switch fluorescence ratio, 500 uM ATP over buffer (Cy3 cluster intensity, sum of 5 cycles each) (fold (ratio)); higher = stronger signal-on switching upon ATP binding; sequences stand for … in TCGTCGGCAGCGTCAGATGTGTATAAGAGACAGTTTTTTTTTTTTTTTTTTTTTTTTT…TC; settings: aptamer strand: ATP DNA aptamer (quencher-CACCTGGGGGAGTATTGCGGAGGAAGG + anchor), 100 nM annealed; ATP concentration: 500 uM; one replicate
Summary of the method: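 Clusters with intensities outside 100-1000 RFU were excluded. The remaining Cy3-labelled switching-strand clusters on a modified Illumina MiSeq flow-cell had been annealed to 100 nM quencher-labelled ATP aptamer and imaged in selection buffer, then after 15 min with 500 uM ATP at 22 °C, for five cycles separated by NaOH stripping and re-annealing. The fluorescence ratio, averaged per switch-domain sequence, is each cluster's summed target-cycle Cy3 intensity over its summed buffer-cycle Cy3 intensity.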
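Note: ATP exposure 15 min at 22 °C before imaging.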

Q: How did the switch fluorescence ratio turn out when GGCCAATGAA was run?
A: 1

Q: For GGCCAATGAT, which switch fluorescence ratio is on record?
A: 0.985

Q: How did the switch fluorescence ratio turn out when GGCCAATTGT was run?
A: 1.02

Q: For GGCCACCGGT, which switch fluorescence ratio is on record?
A: 0.976

Q: With GGCCACTTAT as the sequence, how does the switch fluorescence ratio read?
A: 1.02

Q: Which switch fluorescence ratio does the source give for GGCCAGTTAG here?
A: 0.998

Q: With GGCCCACGCT as the sequence, how does the switch fluorescence ratio read?
A: 0.996

Q: With GGCCCCGAGG as the sequence, how does the switch fluorescence ratio read?
A: 1

Q: GGCCCGATGT was tested. Which switch fluorescence ratio did it give?
A: 0.991

Q: How did the switch fluorescence ratio turn out when GGCCCTTCT was run?
A: 1.22

Q: How did the switch fluorescence ratio turn out when GGCCGAAAAC was run?
A: 1

Q: With GGCCGCCCTA as the sequence, how does the switch fluorescence ratio read?
A: 1.03

Q: With GGCCGCCTGT as the sequence, how does the switch fluorescence ratio read?
A: 1.03

Q: For GGCCGCGTGG, which switch fluorescence ratio is on record?
A: 0.991

Q: For GGCCGGCTC, which switch fluorescence ratio is on record?
A: 1.01

Q: With GGCCGGGTTG as the sequence, how does the switch fluorescence ratio read?
A: 0.984

Q: Which switch fluorescence ratio does the source give for GGCCGGTATA here?
A: 0.99

Q: GGCCGTTGGA was tested. Which switch fluorescence ratio did it give?
A: 0.977

Q: For GGCCTAAAAT, which switch fluorescence ratio is on record?
A: 0.968

Q: How did the switch fluorescence ratio turn out when GGCCTATGGA was run?
A: 1.03

Q: Which switch fluorescence ratio does the source give for GGCCTGCAAA here?
A: 1.01

Q: With GGCCTGCTA as the sequence, how does the switch fluorescence ratio read?
A: 0.999

Q: With GGCCTGCTGT as the sequence, how does the switch fluorescence ratio read?
A: 0.982

Q: GGCCTGGGTG was tested. Which switch fluorescence ratio did it give?
A: 2.22

Q: How did the switch fluorescence ratio turn out when GGCCTGGTAG was run?
A: 0.989

Q: For GGCCTTCTGC, which switch fluorescence ratio is on record?
A: 1.04

Q: For GGCCTTGAGT, which switch fluorescence ratio is on record?
A: 1.01

Q: Which switch fluorescence ratio does the source give for GGCCTTGCAA here?
A: 1.56

Q: Which switch fluorescence ratio does the source give for GGCGACGAGC here?
A: 0.965

Q: With GGCGAGCAAC as the sequence, how does the switch fluorescence ratio read?
A: 1.06

Q: GGCGATAACC was tested. Which switch fluorescence ratio did it give?
A: 1.02

Q: For GGCGATAACG, which switch fluorescence ratio is on record?
A: 1.03

Q: For GGCGCAGGCG, which switch fluorescence ratio is on record?
A: 1.01

Q: With GGCGCCAAGG as the sequence, how does the switch fluorescence ratio read?
A: 0.975

Q: How did the switch fluorescence ratio turn out when GGCGCGGACA was run?
A: 1.03

Q: GGCGCGGCAC was tested. Which switch fluorescence ratio did it give?
A: 1.01

Q: For GGCGCTAGGG, which switch fluorescence ratio is on record?
A: 1.01

Q: How did the switch fluorescence ratio turn out when GGCGCTCAGG was run?
A: 1.04

Q: GGCGCTTCTA was tested. Which switch fluorescence ratio did it give?
A: 1.03

Q: With GGCGGAGGCT as the sequence, how does the switch fluorescence ratio read?
A: 0.971

Q: How did the switch fluorescence ratio turn out when GGCGGATAGC was run?
A: 1.03

Q: For GGCGGCCGTC, which switch fluorescence ratio is on record?
A: 0.977

Q: With GGCGGGATTA as the sequence, how does the switch fluorescence ratio read?
A: 1.02

Q: GGCGGGATTT was tested. Which switch fluorescence ratio did it give?
A: 0.995

Q: How did the switch fluorescence ratio turn out when GGCGGGCATT was run?
A: 0.978

Q: With GGCGGTGGTG as the sequence, how does the switch fluorescence ratio read?
A: 1

Q: Which switch fluorescence ratio does the source give for GGCGGTTGTA here?
A: 0.991

Q: How did the switch fluorescence ratio turn out when GGCGGTTTTT was run?
A: 1

Q: For GGCGTATAGG, which switch fluorescence ratio is on record?
A: 0.985

Q: GGCGTATGTC was tested. Which switch fluorescence ratio did it give?
A: 1

Q: For GGCGTCATGG, which switch fluorescence ratio is on record?
A: 1.02

Q: With GGCGTGAAAT as the sequence, how does the switch fluorescence ratio read?
A: 1.01

Q: Which switch fluorescence ratio does the source give for GGCGTGAACT here?
A: 0.993

Q: GGCGTGAAGT was tested. Which switch fluorescence ratio did it give?
A: 0.965

Q: How did the switch fluorescence ratio turn out when GGCGTGTCGG was run?
A: 1.04

Q: For GGCGTTCGGG, which switch fluorescence ratio is on record?
A: 1

Q: GGCGTTGATA was tested. Which switch fluorescence ratio did it give?
A: 1

Q: GGCGTTTA was tested. Which switch fluorescence ratio did it give?
A: 0.991

Q: With GGCGTTTGCA as the sequence, how does the switch fluorescence ratio read?
A: 0.971

Q: How did the switch fluorescence ratio turn out when GGCTAATATG was run?
A: 1.02

Q: How did the switch fluorescence ratio turn out when GGCTACTAC was run?
A: 1.25

Q: Which switch fluorescence ratio does the source give for GGCTAGAGGT here?
A: 0.983

Q: For GGCTAGGTTT, which switch fluorescence ratio is on record?
A: 0.992

Q: How did the switch fluorescence ratio turn out when GGCTATGGAA was run?
A: 1.05

Q: For GGCTATTTGT, which switch fluorescence ratio is on record?
A: 0.958

Q: For GGCTCAAAAC, which switch fluorescence ratio is on record?
A: 1

Q: How did the switch fluorescence ratio turn out when GGCTCAGCAT was run?
A: 1.59

Q: For GGCTCTCCAT, which switch fluorescence ratio is on record?
A: 1.02

Q: Which switch fluorescence ratio does the source give for GGCTCTGCTT here?
A: 0.989

Q: For GGCTCTGGGC, which switch fluorescence ratio is on record?
A: 1.02

Q: For GGCTGCACAG, which switch fluorescence ratio is on record?
A: 1.02

Q: Which switch fluorescence ratio does the source give for GGCTGCATAG here?
A: 0.976

Q: For GGCTGCGGGA, which switch fluorescence ratio is on record?
A: 1.03

Q: How did the switch fluorescence ratio turn out when GGCTGGGACA was run?
A: 1.03

Q: Which switch fluorescence ratio does the source give for GGCTGGGAGA here?
A: 1.02

Q: Which switch fluorescence ratio does the source give for GGCTGTCCTA here?
A: 0.99

Q: For GGCTGTTTAG, which switch fluorescence ratio is on record?
A: 1

Q: GGCTTAAGA was tested. Which switch fluorescence ratio did it give?
A: 0.971

Q: With GGCTTAAT as the sequence, how does the switch fluorescence ratio read?
A: 1.01

Q: Which switch fluorescence ratio does the source give for GGCTTACATG here?
A: 0.985

Q: Which switch fluorescence ratio does the source give for GGCTTGCGCC here?
A: 0.98

Q: With GGGAAGAGAA as the sequence, how does the switch fluorescence ratio read?
A: 0.975

Q: With GGGAAGCCTC as the sequence, how does the switch fluorescence ratio read?
A: 1.04

Q: How did the switch fluorescence ratio turn out when GGGAAGGGAC was run?
A: 1

Q: GGGAAGTCGC was tested. Which switch fluorescence ratio did it give?
A: 0.981

Q: GGGAATGCAC was tested. Which switch fluorescence ratio did it give?
A: 1.05

Q: Which switch fluorescence ratio does the source give for GGGAATGGCT here?
A: 0.963

Q: With GGGAATTGGC as the sequence, how does the switch fluorescence ratio read?
A: 1.14

Q: For GGGACAAGAG, which switch fluorescence ratio is on record?
A: 1.02

Q: GGGACAGGG was tested. Which switch fluorescence ratio did it give?
A: 0.945

Q: With GGGACCCACA as the sequence, how does the switch fluorescence ratio read?
A: 1.11

Q: Which switch fluorescence ratio does the source give for GGGACGACTC here?
A: 1.45

Q: Which switch fluorescence ratio does the source give for GGGACGGAAT here?
A: 1.1

Q: How did the switch fluorescence ratio turn out when GGGACGGCAT was run?
A: 1.04

Q: How did the switch fluorescence ratio turn out when GGGACGGCGT was run?
A: 0.975

Q: For GGGACGTAAG, which switch fluorescence ratio is on record?
A: 1.06

Q: GGGAGAACTC was tested. Which switch fluorescence ratio did it give?
A: 0.994

Q: GGGAGATGAG was tested. Which switch fluorescence ratio did it give?
A: 1.01

Q: Which switch fluorescence ratio does the source give for GGGAGCAGGC here?
A: 1.09

Q: GGGAGCATGT was tested. Which switch fluorescence ratio did it give?
A: 0.988

Q: With GGGAGGACGT as the sequence, how does the switch fluorescence ratio read?
A: 1.04
